Measurements published in the supplement of paper PMC5655136.
Read counts after selection give these values, which scatter widely.

Test system: NB7
Experiment: fold depletion of shRNA, plasmid library share / infected cells without Dox share (9 days) (ratio); higher = more depleted after infection (more toxic, leaky expression from a Tet-inducible vector; NB7 is a neuroblastoma line without caspase-8)
Experimental: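 Pooled lethality screen in NB7 neuroblastoma cells infected with Dox-inducible pTIP shRNA libraries. The libraries tile every 21-mer of the Venus, CD95L or CD95 ORF / 3'UTR; each hairpin is the 21-nt sense sequence + CTCGAG loop + antisense. Cells were cultured 9 days with or without 100 ng/ml Dox. shRNA representation was measured by deep sequencing of the genomic inserts, normalised to the total reads per subpool and averaged over technical replicates. Fold depletion is the plasmid library share / infected cells without Dox share (mean of 2 biological replicates), and the -Dox/+Dox share ratio is the mean of 4 replicate pairings; higher values mean more depletion (toxicity).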

[1] = shRNA pool: CD95 ORF + CD95 3'UTR + Venus libraries
[2] = shRNA pool: CD95L ORF + CD95L 3'UTR + Venus libraries
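Further: shRNA barcodes quantified by deep sequencing of PCR amplicons from cellular DNA, counts expressed as percent of each subpool, ratio averaged over two biological duplicates.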

Row | Sequence | fold depletion of shRNA [1] | fold depletion of shRNA [2]
1 | ACCCAGAATACCAAGTGCAGA | 2.1 | 
2 | ACCCATATCCCCAGATCTACT |  | 0.931
3 | ACCCATGTTTGCAATCAAAGA | 1.12 | 
4 | ACCCCAACGAGAAGCGCGATC | 2.1 | 3.09
5 | ACCCCACTCTATGAATCAATA | 1.59 | 
6 | ACCCCCAAACATGGAAATATC | 0.802 | 
7 | ACCCCCAAGTTTCTAAGATTT | 0.752 | 
8 | ACCCCCATCGGCGACGGCCCC | 0.459 | 0.648
9 | ACCCCCGAAAATGTTCAATAA | 2.32 | 
10 | ACCCCCTGAAAAAAAGGAGCT |  | 3.29
11 | ACCCCGACCACATGAAGCAGC | 1.8 | 1.25
12 | ACCCCTGAAGAAGAGAGGGAA |  | 1.46
13 | ACCCGCGCCGAGGTGAAGTTC | 0.867 | 0.744
14 | ACCCGGACCCAGAATACCAAG | 1.38 | 
15 | ACCCTCCTACCTCTGGTTCTT | 2.49 | 
16 | ACCCTCGTGACCACCCTGGGC | 0.964 | 0.777
17 | ACCCTGAAGCTGATCTGCACC | 1.83 | 
18 | ACCCTGGGCTACGGCCTGCAG | 0.557 | 1.03
19 | ACCCTGGTGAACCGCATCGAG | 1.29 | 1.14
20 | ACCGAGAATGTTGTATTCAGT |  | 3.11
21 | ACCGCATCGAGCTGAAGGGCA | 0.84 | 1.28
22 | ACCGCCACCGCCACCACTACC |  | 3.34
23 | ACCGCCGACAAGCAGAAGAAC | 1.05 | 1.09

Row | Sequence | fold depletion of shRNA [1] | fold depletion of shRNA [2]
24 | ACCGCCGCCGGGATCACTCTC | 1.14 | 1.37
25 | ACCGGCAAGCTGCCCGTGCCC | 1.11 | 1.32
26 | ACCGGGGTGGTGCCCATCCTG | 0.553 | 1.05
27 | ACCTAAAGAACTTCCATTTAT | 0.781 | 
28 | ACCTAATGTTTATGAGCCAGA |  | 1.78
29 | ACCTACGGCAAGCTGACCCTG | 0.936 | 
30 | ACCTACTTCTTTCTCAGGCAT | 1.48 | 
31 | ACCTATGGAATTGTCCTGCTT |  | 1.99
32 | ACCTCAAGGGGGACTGTCTTT |  | 2.32
33 | ACCTCCGCCGCCGCCGCCACC |  | 0.309
34 | ACCTCTCAAGGTGGGCCTTGC |  | 0.38
35 | ACCTCTCCATTTTTGCCTTGG | 8.71 | 
36 | ACCTCTGATAATTCTAGAGAT | 1.08 | 
37 | ACCTCTGGTTCTTACGTCTGT | 4.41 | 
38 | ACCTCTGTGCCCAGAAGGCCT |  | 4.6
39 | ACCTGAGCTACCAGTCCGCCC | 1.34 | 1.47
40 | ACCTGAGGATTTAAGGGATGG |  | 1.49
41 | ACCTGCTACAAATGGCAGCTT | 1.2 | 
42 | ACCTGGGGGCAGTGTTCAATC |  | 8.25
43 | ACCTTGAGACCACAGGGTTCA |  | 0.995
44 | ACCTTTGCACAGTTTATTGGT | 1.6 | 
45 | ACCTTTTAACTCACCTCTCAA |  | 1.78
46 | ACCTTTTGCTGAAATATCAGT | 1.21 | 

Row | Sequence | fold depletion of shRNA [1] | fold depletion of shRNA [2]
47 | ACGACGGCAACTACAAGACCC | 0.699 | 0.646
48 | ACGACTTCTTCAAGTCCGCCA | 2.3 | 2.63
49 | ACGAGAAGCGCGATCACATGG | 1.12 | 0.841
50 | ACGGAAGAACATAGAACTCTG |  | 0.54
51 | ACGGCAACATCCTGGGGCACA | 0.952 | 0.992
52 | ACGGCAACTACAAGACCCGCG | 1.38 | 1.4
53 | ACGGCAAGCTGACCCTGAAGC | 0.634 | 0.54
54 | ACGGCATCAAGGCCAACTTCA | 1.28 | 2.25
55 | ACGGCCACAAGTTCAGCGTGT | 0.661 | 0.912
56 | ACGGCCCCGTGCTGCTGCCCG | 0.353 | 0.612
57 | ACGGCCTGCAGTGCTTCGCCC | 0.799 | 0.911
58 | ACGGCGACGTAAACGGCCACA | 1.08 | 0.831
59 | ACGGCGGCGTGCAGCTCGCCG | 0.649 | 0.604
60 | ACGTAAACGGCCACAAGTTCA | 1.71 | 1.15
61 | ACGTAATTAAATAATGTTTTT | 0.871 | 
62 | ACGTATCTGAGCTCTCTCTGG |  | 0.747
63 | ACGTCCAGGAGCGCACCATCT | 1.3 | 1.43
64 | ACGTCTATATCACCGCCGACA | 1.7 | 2.91
65 | ACGTCTGTTGCTAGATTATCG | 2.76 | 
66 | ACGTTTAAATATCTTTGAAAG | 0.967 | 
67 | ACGTTTTTCGGCTTATATAAG |  | 0.687
68 | ACTAAAGAGAGAATGTAGATA |  | 0.677
69 | ACTAACAGATAAGCAAGAGAG |  | 0.469

Row | Sequence | fold depletion of shRNA [1] | fold depletion of shRNA [2]
70 | ACTAACTGCTCTCAGAGAAAG | 1.7 | 
71 | ACTAAGTCAAGTTAAAGGCTT | 0.759 | 
72 | ACTAATGATGTTTTCCTATAA |  | 0.491
73 | ACTAATTGTTTGGGTGAAGAG | 1.52 | 
74 | ACTACAACAGCCACAACGTCT | 1.14 | 1.4
75 | ACTACAAGACCCGCGCCGAGG | 1.14 | 1.4
76 | ACTACAGTTGAGACTCAGAAC | 1.11 | 
77 | ACTACCAGCAGAACACCCCCA | 1.2 | 1.22
78 | ACTACCGCTGCCACCCCTGAA |  | 0.836
79 | ACTACCTACTTCTTTCTCAGG | 1.83 | 
80 | ACTACCTGAGCTACCAGTCCG | 1.67 | 1.82
81 | ACTACTATCCTACGTTTAAAT | 0.925 | 
82 | ACTAGAGGCTTGCATAATAAG |  | 1.02
83 | ACTAGTGACTCAGAAAATTCA | 1.04 | 
84 | ACTATCATCCTCAAGGACATT | 1.81 | 
85 | ACTATCCTACGTTTAAATATC | 0.846 | 
86 | ACTATTATATATGTGTATGCA | 1.18 | 
87 | ACTATTGCTGGAGTCATGACA | 2.2 | 
88 | ACTCACCAGCAACACCAAGTG | 1.29 | 
89 | ACTCACCTAATGTTTATGAGC |  | 1.64
90 | ACTCACCTCTCAAGGTGGGCC |  | 2.08
91 | ACTCAGAAAATTCAAACTTCA | 1.08 | 
92 | ACTCAGAACTTGGAAGGCCTG | 1.54 | 

Row | Sequence | fold depletion of shRNA [1] | fold depletion of shRNA [2]
93 | ACTCATTTCATTCCTAACACA |  | 2.13
94 | ACTCCAAGGGATTGGAATTGA | 1.57 | 
95 | ACTCCGAGAGTCTACCAGCCA |  | 1.46
96 | ACTCTAAGTATCCCCAGGATC |  | 6.05
97 | ACTCTAATAGTGCTTAAAAAT |  | 0.409
98 | ACTCTACTGTATGTGAACACT | 0.986 | 
99 | ACTCTATGAATCAATAGAAGA | 1.37 | 
100 | ACTCTCGGCATGGACGAGCTG | 0.641 | 1.09
101 | ACTCTGAGAAGATCATATTTA | 0.996 | 
102 | ACTCTGGGCTGCCATGTGAAG |  | 2.29
103 | ACTCTTGCAGAGAAAATTCAG | 2.29 | 
104 | ACTGAACAGGCAGGCCACTTT | 0.343 | 
105 | ACTGAAGCAGATACCTGGAAC | 3.05 | 
106 | ACTGACATCAACTCCAAGGGA | 1.46 | 
107 | ACTGCACAGTCAATGGGGATG | 0.808 | 
108 | ACTGCACCCGGACCCAGAATA | 1.51 | 
109 | ACTGCACTACTGGGCAGATGT |  | 3.78
110 | ACTGCCCTTAGAAATTCTAGC | 1.27 | 
111 | ACTGCCTCCACTACCGCTGCC |  | 0.43
112 | ACTGCGTGCCCTGCCAAGAAG | 0.705 | 
113 | ACTGCTCTCAGAGAAAGTAGC | 5.87 | 
114 | ACTGCTTCGTAATTGGCATCA | 2.96 | 
115 | ACTGCTTGGTTTTTTACTGGG | 11 | 

Row | Sequence | fold depletion of shRNA [1] | fold depletion of shRNA [2]
116 | ACTGGCAGCATCTTCACTTCT |  | 1.77
117 | ACTGGCTCAAAACTACCTACT | 25.9 | 
118 | ACTGGGTACATTTTATCATTT | 0.937 | 
119 | ACTGGGTGGACAGCAGTGCCA |  | 19.9
120 | ACTGTATGTGAACACTGTGAC | 2.36 | 
121 | ACTGTCTTTCAGATACATGGT |  | 1.86
122 | ACTGTGAAGATAGTTATAAAC | 0.991 | 
123 | ACTGTGACCCTTGCACCAAAT | 2.94 | 
124 | ACTGTTACTACAGTTGAGACT | 1.08 | 
125 | ACTTAATAGTCCACCAAAAGG | 0.765 | 
126 | ACTTCAAGATCCGCCACAACA | 3.89 | 
127 | ACTTCAAGGAGGACGGCAACA | 1.46 | 1.36
128 | ACTTCAGAAATGAAATCCAAA | 0.793 | 
129 | ACTTCATCAAGAGTAAATGCA | 1.14 | 
130 | ACTTCATGGAAAGAAAGAAGC | 0.741 | 
131 | ACTTCCATTTATGGAGGATTT | 1.24 | 
132 | ACTTCCGGGGTCAATCTTGCA |  | 22
133 | ACTTCTAAATGCATATCCTGA |  | 0.952
